Screen size: about 74,000 compounds; about 1,100 (1.5%) were called active. Inconclusive means that the source gave no clear call. Such entries were picked first, then a sample of the others. Calls come from the whole dose curve; as a rule, active = well fitted inhibition curve with a large enough effect; inconclusive = small, poorly fitted or top-dose-only effect; inactive = no such curve, though single readings can be large or run the other way. Potencies of inconclusive entries are left out as doubtful fits.
biological target: Polyunsaturated fatty acid lipoxygenase ALOX15 (Homo sapiens) (UniProt P16050); assay: qHTS Assay for Inhibitors of 15-hLO (15-human lipoxygenase); conditions: purified 15hLO-1, xylenol orange hydroperoxide absorbance; activity change, negative = inhibition: at 57.1 µM (top of the series) unless noted; note: nearly all actives have a fitted effect of over 55% in size
UniProt P16050, sequence (P16050 whole entry, looked up): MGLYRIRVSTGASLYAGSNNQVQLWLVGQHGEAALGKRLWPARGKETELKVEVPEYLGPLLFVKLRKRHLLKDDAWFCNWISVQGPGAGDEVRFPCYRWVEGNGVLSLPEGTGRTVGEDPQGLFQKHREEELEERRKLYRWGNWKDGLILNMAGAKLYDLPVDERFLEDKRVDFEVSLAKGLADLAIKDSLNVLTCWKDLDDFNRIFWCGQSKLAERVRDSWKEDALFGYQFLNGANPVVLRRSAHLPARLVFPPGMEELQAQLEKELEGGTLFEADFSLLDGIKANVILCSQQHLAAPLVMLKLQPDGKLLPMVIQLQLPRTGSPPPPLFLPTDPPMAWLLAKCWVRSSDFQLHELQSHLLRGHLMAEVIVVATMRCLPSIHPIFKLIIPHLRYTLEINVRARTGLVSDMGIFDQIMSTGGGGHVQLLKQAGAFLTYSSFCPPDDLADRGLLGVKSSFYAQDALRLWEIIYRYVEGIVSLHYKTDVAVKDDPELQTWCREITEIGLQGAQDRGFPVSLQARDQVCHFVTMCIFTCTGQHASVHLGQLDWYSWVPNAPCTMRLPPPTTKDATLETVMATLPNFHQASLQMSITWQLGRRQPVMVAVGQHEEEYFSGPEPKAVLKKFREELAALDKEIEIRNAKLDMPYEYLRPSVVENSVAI
How it was run: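 40 nM 15hLO-1 + cpd, 15 min RT; start w/ 50 uM AA (final), 6 min RT; stop/detect w/ 200 uM XO + 300 uM Fe(II) in 50 mM H2SO4, 30 min; A573/A405. Buffer 25 mM Hepes pH 7.5, 0.01% Triton X-100. No-enzyme wells as negative control.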
% is set by controls: 0 for no effect and ±100 for the full control effect; potency is the fitted concentration of half-maximal effect; tags give direction and shape of the fitted curve.

With `NC(=O)c1cc(N)ccc1N1CCCC1` as the compound, how does the Potency read?
The Potency was inconclusive [inhibitor, single point].

`COC(=O)c1c(C)n(-c2ccc(OC)cc2)c2ccc(O)cc12` was tested. Which Potency did it give?
The Potency was active: 7.94 µM.

How did the Potency turn out when `CCCn1c(C)nc2c(NCCO)nc(C)nc21` was run?
Its Potency is “inactive”.

`Cc1ccc(N(Cc2ccccc2)Cc2ccccc2)cc1` was tested. Which activity change, negative = inhibition did it give?
Its activity change, negative = inhibition is inactive: 1.12% [at 11.4 µM].

Which Potency does the source give for `CCOC(=O)c1nn(-c2ccccc2)c(C#N)c1NC(=O)c1nn(CC)cc1Br` here?
The Potency was “inactive”.

For `O=C(CN1CCOCC1)N1CCN(C(=O)CN2CCOCC2)CC1`, which Potency is on record?
Its Potency is inconclusive [inhibitor, single point].

How did the Potency turn out when `COc1cccc(C2=CC(c3cccc(OC)c3OC(F)F)n3nnnc3N2)c1` (stereo unspecified) was run?
Its Potency is inconclusive [inhibitor, single point].

`O=C1c2ccccc2C(=O)C1c1ccncc1` was tested. Which Potency did it give?
The Potency was “inactive”.

With `CCCCN1CN(S(=O)(=O)c2cccs2)c2nc3ccccc3nc21` as the compound, how does the Potency read?
The Potency was inconclusive [inhibitor, single point].

`COCCNS(=O)(=O)c1ccc(SC)cc1` was tested. Which Potency did it give?
The Potency was inconclusive [inhibitor, single point].

Which Potency does the source give for `N#Cc1cccc(NC(=O)N2CCCC3(CCN(S(=O)(=O)c4ccccc4)CC3)C2)c1` here?
The Potency was “inactive”.

How did the Potency turn out when `Cc1cc(SCC#N)n2nc(C)c(-c3ccccc3)c2n1` was run?
Its Potency is inconclusive [inhibitor, partial curve].

With `Cc1nnc(SC(=O)N2c3ccccc3Sc3ccccc32)s1` as the compound, how does the Potency read?
The Potency was inconclusive [inhibitor, partial curve].

How did the Potency turn out when `COc1ccc(-c2nc3c(=O)n(C)c(=O)[nH]c3n2CCc2ccccc2)cc1` was run?
The Potency was “inactive”.

`O=C(Nc1ccc(CCC(=O)N2CCCC2)cc1)c1ncn[nH]1` was tested. Which Potency did it give?
Its Potency is inconclusive [inhibitor, full curve].

How did the Potency turn out when `CCOc1ccccc1CN1CCN(S(C)(=O)=O)CC1` was run?
The Potency was inconclusive [inhibitor, single point].

With `CS(=O)(=O)Nc1c(O)ccc2c1CCC[C@H]2C1=NCCN1` as the compound, how does the Potency read?
The Potency was inconclusive [inhibitor, single point].

Which Potency does the source give for `Cc1ccc(O)c(-c2cc3ccccc3[nH]2)c1` here?
The Potency was inconclusive [inhibitor, single point].

With `NS(=O)(=O)c1ccc(N=Nc2nc3[nH]cnc(=S)c3[nH]2)cc1` as the compound, how does the Potency read?
The Potency was inconclusive [inhibitor, full curve, poor fit].

How did the Potency turn out when `CCOC(=O)Nc1ccc(C(=O)Oc2ccccc2)c(O)c1` was run?
The Potency was inconclusive [inhibitor, partial curve, poor fit].

For `CC(=O)Nc1cccc(C(=O)Oc2cccc(C)c2)c1O`, which Potency is on record?
The Potency was active: 15.8 µM.
